# Measured values as given in article PMC12820563.
# This is one part of the list. The list includes weakly bound sequences.
# Target: T1, MBP-FoxP3dN (UniProt Q99JB6)
# T1 sequence: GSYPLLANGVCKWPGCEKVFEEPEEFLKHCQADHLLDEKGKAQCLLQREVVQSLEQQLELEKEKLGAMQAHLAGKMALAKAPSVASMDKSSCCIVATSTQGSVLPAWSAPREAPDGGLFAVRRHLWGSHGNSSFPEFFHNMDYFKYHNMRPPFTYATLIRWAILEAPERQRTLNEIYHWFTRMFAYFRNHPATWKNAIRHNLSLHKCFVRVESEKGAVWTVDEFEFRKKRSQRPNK
# Experiment: PD-seq (MBP pull-down with sequencing)
# Conditions: 20 mM Tris-HCl pH 7.5, 100 mM NaCl, 1.5 mM MgCl2, 0.4 uM protein, 0.1 uM dsDNA library, 30 min, room temperature, amylose pull-down; high values mean tight binding; double strand, one strand shown
row,Sequence,binding signal (RPM ratio (pull-down/input))
1,GATGATTGTTCTCCCAGCTGATGAATTGTACGAGTCGAGTAAACAAATTTTCCTAATCTTTCTGTTCAAGCGCCATCTAC,0.325
2,GATGATTGTTCTCCCAGCTGATGAATTTATCAAGTCGAGTAAACAAATTTTCCTAATCTTTCTGTTCAAGCGCCATCTAC,0.32
3,GATGATTGTTCTCCCAGCTGATGAATTATACACTTCGAGTAAACAAATTTTCCTAATCTTTCTGTTCAAGCGCCATCTAC,0.66
4,GATGATTGTTCTCCCAGCTGATGAATTTGGCGCATCGAGTAAACAAATTTTCCTAATCTTTCTGTTCAAGCGCCATCTAC,1.42
5,GATGATTGTTCTCCCAGCTGATGAATTAGGCGAGTCGAGTAAACAAATTTTCCTAATCTTTCTGTTCAAGCGCCATCTAC,0.64
6,GATGATTGTTCTCCCAGCTGATGAATTGCCTGTATCGAGTAAACAAATTTTCCTAATCTTTCTGTTCAAGCGCCATCTAC,1.19
7,GATGATTGTTCTCCCAGCTGATGAATTCTGTAATTCGAGTAAACAAATTTTCCTAATCTTTCTGTTCAAGCGCCATCTAC,2.07
8,GATGATTGTTCTCCCAGCTGATGAATTAGACGAGTCGAGTAAACAAATTTTCCTAATCTTTCTGTTCAAGCGCCATCTAC,0.251
9,GATGATTGTTCTCCCAGCTGATGAATTTCTATGATCGAGTAAACAAATTTTCCTAATCTTTCTGTTCAAGCGCCATCTAC,0.277
10,GATGATTGTTCTCCCAGCTGATGAATTCAGGCCTTCGAGTAAACAAATTTTCCTAATCTTTCTGTTCAAGCGCCATCTAC,1.2
11,GATGATTGTTCTCCCAGCTGATGAATTCATAAATTCGAGTAAACAAATTTTCCTAATCTTTCTGTTCAAGCGCCATCTAC,0.319
12,GATGATTGTTCTCCCAGCTGATGAATTAATGGTCTCGAGTAAACAAATTTTCCTAATCTTTCTGTTCAAGCGCCATCTAC,0.824
13,GATGATTGTTCTCCCAGCTGATGAATTTATATGTTCGAGTAAACAAATTTTCCTAATCTTTCTGTTCAAGCGCCATCTAC,3.12
14,GATGATTGTTCTCCCAGCTGATGAATTTCTGTATTCGAGTAAACAAATTTTCCTAATCTTTCTGTTCAAGCGCCATCTAC,1.38
15,GATGATTGTTCTCCCAGCTGATGAATTGTTTAGCTCGAGTAAACAAATTTTCCTAATCTTTCTGTTCAAGCGCCATCTAC,3.66
16,GATGATTGTTCTCCCAGCTGATGAATTTAATACATCGAGTAAACAAATTTTCCTAATCTTTCTGTTCAAGCGCCATCTAC,0.619
17,GATGATTGTTCTCCCAGCTGATGAATTGGGATGTTCGAGTAAACAAATTTTCCTAATCTTTCTGTTCAAGCGCCATCTAC,0.774
18,GATGATTGTTCTCCCAGCTGATGAATTGCCTACATCGAGTAAACAAATTTTCCTAATCTTTCTGTTCAAGCGCCATCTAC,0.721
